The target in one assay is T1, GST-NLI (mouse) (UniProt P70662).
T1 sequence: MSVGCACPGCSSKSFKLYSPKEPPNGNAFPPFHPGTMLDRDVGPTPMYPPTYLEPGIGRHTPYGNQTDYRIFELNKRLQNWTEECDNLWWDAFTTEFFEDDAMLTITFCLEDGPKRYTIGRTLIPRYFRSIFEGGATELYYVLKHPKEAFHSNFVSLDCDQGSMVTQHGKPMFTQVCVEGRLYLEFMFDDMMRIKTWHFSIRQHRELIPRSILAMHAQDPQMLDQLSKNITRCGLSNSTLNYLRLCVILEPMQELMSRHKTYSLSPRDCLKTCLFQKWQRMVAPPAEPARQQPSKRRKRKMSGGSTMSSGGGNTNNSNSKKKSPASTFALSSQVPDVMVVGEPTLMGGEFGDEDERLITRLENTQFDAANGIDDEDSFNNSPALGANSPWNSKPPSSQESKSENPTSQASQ
The assay can be described thus: pull-down; in vitro GST pull-down: GST fusion proteins on glutathione sepharose beads incubated with in vitro translated Lhx8, Lhx3 or Lhx1; bound proteins eluted by boiling, western blot with anti-HA, Odyssey imaging; only the target purified.

The chains behind the UniProt entries cited, without tags or fusion partners.
UniProt O35652: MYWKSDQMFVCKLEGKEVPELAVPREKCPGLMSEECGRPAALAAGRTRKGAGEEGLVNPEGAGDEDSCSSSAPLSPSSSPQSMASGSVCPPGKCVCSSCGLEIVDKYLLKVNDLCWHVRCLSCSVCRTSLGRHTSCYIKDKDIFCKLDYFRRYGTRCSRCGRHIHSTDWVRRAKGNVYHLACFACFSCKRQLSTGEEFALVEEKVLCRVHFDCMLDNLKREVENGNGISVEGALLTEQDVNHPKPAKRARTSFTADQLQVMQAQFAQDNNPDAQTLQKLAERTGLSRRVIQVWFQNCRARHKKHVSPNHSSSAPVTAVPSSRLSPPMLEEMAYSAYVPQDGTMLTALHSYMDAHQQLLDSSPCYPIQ

The next assay addresses T2, GST-Isl1 (rat) (UniProt P61374).
T2 sequence: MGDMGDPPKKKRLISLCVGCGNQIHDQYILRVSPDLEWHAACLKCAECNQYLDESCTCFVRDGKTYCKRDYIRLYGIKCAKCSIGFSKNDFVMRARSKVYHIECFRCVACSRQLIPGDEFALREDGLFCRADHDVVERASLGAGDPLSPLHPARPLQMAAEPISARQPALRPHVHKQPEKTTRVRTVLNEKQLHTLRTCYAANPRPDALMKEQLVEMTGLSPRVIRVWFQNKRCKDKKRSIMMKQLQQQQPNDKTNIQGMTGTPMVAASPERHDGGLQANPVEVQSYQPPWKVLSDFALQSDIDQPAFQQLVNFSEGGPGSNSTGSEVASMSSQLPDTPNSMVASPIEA
The description is as above.

The target of assay [1] is T3, GST-NLI (mammalian expression, pEBG) (mouse) (UniProt P70662).
T3 sequence: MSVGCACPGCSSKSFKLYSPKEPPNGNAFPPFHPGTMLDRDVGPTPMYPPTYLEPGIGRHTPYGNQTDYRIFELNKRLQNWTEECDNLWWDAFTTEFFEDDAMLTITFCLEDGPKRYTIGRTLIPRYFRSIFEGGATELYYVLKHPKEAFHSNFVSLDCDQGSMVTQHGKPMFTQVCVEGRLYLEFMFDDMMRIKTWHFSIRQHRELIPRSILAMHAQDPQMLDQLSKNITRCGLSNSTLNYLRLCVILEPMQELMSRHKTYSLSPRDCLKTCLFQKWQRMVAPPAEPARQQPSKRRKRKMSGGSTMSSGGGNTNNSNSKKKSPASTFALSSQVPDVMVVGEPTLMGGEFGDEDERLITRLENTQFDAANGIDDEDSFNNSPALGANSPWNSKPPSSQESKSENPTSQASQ
Kind of assay: pull-down; GST pull-down from transfected HEK293 cells (Flag- and GST-tagged constructs); lysis in IP buffer (20 mM Tris-HCl pH 8.0, 0.5% NP-40, 1 mM EDTA, 150 mM NaCl, 10% glycerol); glutathione sepharose beads; western blot.

In assay [2] the target is GST-Lhx8 (mammalian expression, pEBG) (mouse) (UniProt O35652). Described as above.

No constants are given. Whether binding was seen depends on the method and setting. In cells and extracts the contact can be indirect. Some binding calls cover weakened binding; strength is not graded here. Sequences can lack the tags named with a protein.

Turning to “Lhx8 (HA-tagged, in vitro translated) (from UniProt O35652 1-367)”, the binding entry with GST-NLI (mouse) and with GST-Isl1 (rat) was “binds” in each case. In the case of Flag-Lhx8 (from UniProt O35652 1-367), the binding entry in assay [1] is on record as “binds”.

B1: Lhx3 (HA-tagged, in vitro translated) (protein, UniProt P50481 1-400)
chain: MLLEAELDCHRERPGAPGASALCTFSRTPEIPMCAGCDQHILDRFILKALDRHWHSKCLKCSDCHVPLAERCFSRGESVYCKDDFFKRFGTKCAACQLGIPPTQVVRRAQDFVYHLHCFACVVCKRQLATGDEFYLMEDSRLVCKADYETAKQREAEATAKRPRTTITAKQLETLKSAYNTSPKPARHVREQLSSETGLDMRVVQVWFQNRRAKEKRLKKDAGRQRWGQYFRNMKRSRGSSKSDKDSIQEGQDSDAEVSFTDEPSMADMGPANGLYSSLGEPAPALGRPVGGLGSFTLDHGGLTGPEQYRELRPGSPYGIPPSPAAPQSLPGPQPLLSSLVYPDTNLSLVPSGPPGGPPPMRVLAGNGPSSDLSTESSSGYPDFPASPASWLDEVDHAQF
Consider B1, for which the binding result with GST-NLI (mouse) and with GST-Isl1 (rat) was “binds” each time.

B2: Flag-Isl1 (protein, UniProt P61374 1-349)
chain: MGDMGDPPKKKRLISLCVGCGNQIHDQYILRVSPDLEWHAACLKCAECNQYLDESCTCFVRDGKTYCKRDYIRLYGIKCAKCSIGFSKNDFVMRARSKVYHIECFRCVACSRQLIPGDEFALREDGLFCRADHDVVERASLGAGDPLSPLHPARPLQMAAEPISARQPALRPHVHKQPEKTTRVRTVLNEKQLHTLRTCYAANPRPDALMKEQLVEMTGLSPRVIRVWFQNKRCKDKKRSIMMKQLQQQQPNDKTNIQGMTGTPMVAASPERHDGGLQANPVEVQSYQPPWKVLSDFALQSDIDQPAFQQLVNFSEGGPGSNSTGSEVASMSSQLPDTPNSMVASPIEA
B2: the binding result in assay [2] was “binds”.

B3: Lhx1 (HA-tagged, in vitro translated) (protein, UniProt P63006 1-406)
chain: MVHCAGCKRPILDRFLLNVLDRAWHVKCVQCCECKCNLTEKCFSREGKLYCKNDFFRCFGTKCAGCAQGISPSDLVRRARSKVFHLNCFTCMMCNKQLSTGEELYIIDENKFVCKEDYLSNSSVAKENSLHSATTGSDPSLSPDSQDPSQDDAKDSESANVSDKEGGSNENDDQNLGAKRRGPRTTIKAKQLETLKAAFAATPKPTRHIREQLAQETGLNMRVIQVWFQNRRSKERRMKQLSALGARRHAFFRSPRRMRPLVDRLEPGELIPNGPFSFYGDYQSEYYGPGGNYDFFPQGPPSSQAQTPVDLPFVPSSGPSGTPLGGLDHPLPGHHPSSEAQRFTDILAHPPGDSPSPEPSLPGPLHSMSAEVFGPSPPFSSLSVNGGASYGNHLSHPPEMNEAAVW
Turning to B3, the results for the binding entry with GST-NLI (mouse) and with GST-Isl1 (rat) were “binds” and “no binding”, respectively.
